Reference: the supplement of paper PMC8728848
The list shows a part of the results.

How the values were obtained:
Test in all cases: glycan array binding signal (z-score within array); higher = stronger binding
Conditions in all cases: glycan notation: IUPAC condensed, linker removed
[1] = target: Gal(b1-4)GalNAc(b1-3)[Fuc(a1-2)]Gal(b1-4)GlcNAc
Procedure, shortened: (§1)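 The binding signal is a Z-score computed within each array and averaged over linkers. Arrays of the same protein sequence at different concentrations or buffers were also averaged together. Data originate from 3228 arrays in the Consortium for Functional Glycomics database, kept only where the protein sequence was available.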

[2] = target: Gal(b1-4)Glc
Procedure, shortened: as §1

[3] = target: Gal(b1-4)Glc6S
Procedure, shortened: as §1

[4] = target: Gal(b1-4)GlcNAc
Procedure, shortened: as §1

[5] = target: Gal(b1-4)GlcNAc(a1-6)Gal(b1-4)GlcNAc
Procedure, shortened: as §1

[6] = target: Gal(b1-4)GlcNAc(b1-2)Man
Procedure, shortened: as §1

[7] = target: Gal(b1-4)GlcNAc(b1-2)Man(a1-3)Man(b1-4)GlcNAc(b1-4)GlcNAc
Procedure, shortened: as §1

[8] = target: Gal(b1-4)GlcNAc(b1-2)Man(a1-3)[Gal(b1-4)GlcNAc(b1-2)Man(a1-6)]Man(b1-4)GlcNAc(b1-4)GlcNAc
Procedure, shortened: as §1

[9] = target: Gal(b1-4)GlcNAc(b1-2)Man(a1-3)[Gal(b1-4)GlcNAc(b1-2)Man(a1-6)]Man(b1-4)GlcNAc(b1-4)[Fuc(a1-6)]GlcNAc
Procedure, shortened: as §1

[10] = target: Gal(b1-4)GlcNAc(b1-2)Man(a1-3)[Gal(b1-4)GlcNAc(b1-2)Man(a1-6)][Gal(b1-4)GlcNAc(b1-4)]Man(b1-4)GlcNAc(b1-4)[Fuc(a1-6)]GlcNAc
Procedure, shortened: as §1

[11] = target: Gal(b1-4)GlcNAc(b1-2)Man(a1-3)[Gal(b1-4)GlcNAc(b1-2)Man(a1-6)][GlcNAc(b1-4)]Man(b1-4)GlcNAc(b1-4)[Fuc(a1-6)]GlcNAc
Procedure, shortened: as §1

[12] = target: Gal(b1-4)GlcNAc(b1-2)Man(a1-3)[GlcNAc(b1-2)Man(a1-6)]Man(b1-4)GlcNAc(b1-4)GlcNAc
Procedure, shortened: as §1

[13] = target: Gal(b1-4)GlcNAc(b1-2)Man(a1-3)[GlcNAc(b1-4)][Gal(b1-4)GlcNAc(b1-2)Man(a1-6)]Man(b1-4)GlcNAc(b1-4)GlcNAc
Procedure, shortened: as §1

[14] = target: Gal(b1-4)GlcNAc(b1-2)Man(a1-3)[Man(a1-6)]Man(b1-4)GlcNAc(b1-4)GlcNAc
Procedure, shortened: as §1

[15] = target: Gal(b1-4)GlcNAc(b1-2)Man(a1-6)Man(b1-4)GlcNAc(b1-4)GlcNAc
Procedure, shortened: as §1

[16] = target: Gal(b1-4)GlcNAc(b1-2)Man(a1-6)[GlcNAc(b1-2)Man(a1-3)]Man(b1-4)GlcNAc(b1-4)GlcNAc
Procedure, shortened: as §1

[17] = target: Gal(b1-4)GlcNAc(b1-2)Man(a1-6)[Man(a1-3)]Man(b1-4)GlcNAc(b1-4)GlcNAc
Procedure, shortened: as §1

[18] = target: Gal(b1-4)GlcNAc(b1-2)[Gal(b1-4)GlcNAc(b1-4)]Man(a1-3)[Gal(b1-4)GlcNAc(b1-2)Man(a1-6)]Man(b1-4)GlcNAc(b1-4)GlcNAc
Procedure, shortened: as §1

[19] = target: Gal(b1-4)GlcNAc(b1-2)[Gal(b1-4)GlcNAc(b1-4)]Man(a1-3)[Gal(b1-4)GlcNAc(b1-2)[Gal(b1-4)GlcNAc(b1-6)]Man(a1-6)]Man(b1-4)GlcNAc(b1-4)GlcNAc
Procedure, shortened: as §1

[20] = target: Gal(b1-4)GlcNAc(b1-2)[Gal(b1-4)GlcNAc(b1-4)]Man(a1-3)[GlcNAc(b1-4)][Gal(b1-4)GlcNAc(b1-2)Man(a1-6)]Man(b1-4)GlcNAc(b1-4)GlcNAc
Procedure, shortened: as §1

[21] = target: Gal(b1-4)GlcNAc(b1-2)[Gal(b1-4)GlcNAc(b1-4)]Man(a1-3)[GlcNAc(b1-4)][Gal(b1-4)GlcNAc(b1-2)[Gal(b1-4)GlcNAc(b1-6)]Man(a1-6)]Man(b1-4)GlcNAc(b1-4)GlcNAc
Procedure, shortened: as §1

[22] = target: Gal(b1-4)GlcNAc(b1-2)[Gal(b1-4)GlcNAc(b1-6)]Man(a1-6)[Gal(b1-4)GlcNAc(b1-2)Man(a1-3)]Man(b1-4)GlcNAc(b1-4)GlcNAc
Procedure, shortened: as §1

B1: LBL-152 (Laetiporus bicolor), B0D650 (protein)
chain: MSNEYNPPLGIAFRLCGLASDRVLFSRVSPSPEVFHHPKSEVYPDQWFVAIPGSGQNAGCYAIKSKNTGKVLFSRMSPDPRVGHIDGDGKYPDNWFKFEAGSGKYAGYFRLRAVASDTVLVSRTSTGTDTQVINYPATSAKYDDQYFTILFDHHHHHH
[1]
  glycan array binding signal (z-score): -0.156
[2]
  glycan array binding signal (z-score): -0.156
[3]
  glycan array binding signal (z-score): -0.155
[4]
  glycan array binding signal (z-score): -0.156
[5]
  glycan array binding signal (z-score): -0.153
[6]
  glycan array binding signal (z-score): -0.148
[7]
  glycan array binding signal (z-score): -0.155
[8]
  glycan array binding signal (z-score): -0.113
[9]
  glycan array binding signal (z-score): -0.144
[10]
  glycan array binding signal (z-score): -0.01
[11]
  glycan array binding signal (z-score): 0.48
[12]
  glycan array binding signal (z-score): -0.158
[13]
  glycan array binding signal (z-score): -0.138
[14]
  glycan array binding signal (z-score): -0.152
[15]
  glycan array binding signal (z-score): -0.156
[16]
  glycan array binding signal (z-score): -0.156
[17]
  glycan array binding signal (z-score): -0.156
[18]
  glycan array binding signal (z-score): 0.149
[19]
  glycan array binding signal (z-score): -0.033
[20]
  glycan array binding signal (z-score): -0.081
[21]
  glycan array binding signal (z-score): -0.066
[22]
  glycan array binding signal (z-score): -0.135
